# Reference: paper PMC4336329 (PLoS ONE, 2015)
# In all, about 310,000 compounds went through this assay and about 14,000 (4.5%) showed an effect of 50% or more. The effect is printed as a negative number. The list shows a part of the results.
# Target: human ether-à-go-go-related gene (hERG) potassium channel (human, UniProt Q12809)
# Experiment: primary screen, population patch clamp on CHO cells stably expressing hERG
# 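Further: peak tail current of the secondary pulse compared with the same well before compound.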
# human ether-à-go-go-related gene (hERG) potassium channel, sequence (Q12809 whole entry, looked up): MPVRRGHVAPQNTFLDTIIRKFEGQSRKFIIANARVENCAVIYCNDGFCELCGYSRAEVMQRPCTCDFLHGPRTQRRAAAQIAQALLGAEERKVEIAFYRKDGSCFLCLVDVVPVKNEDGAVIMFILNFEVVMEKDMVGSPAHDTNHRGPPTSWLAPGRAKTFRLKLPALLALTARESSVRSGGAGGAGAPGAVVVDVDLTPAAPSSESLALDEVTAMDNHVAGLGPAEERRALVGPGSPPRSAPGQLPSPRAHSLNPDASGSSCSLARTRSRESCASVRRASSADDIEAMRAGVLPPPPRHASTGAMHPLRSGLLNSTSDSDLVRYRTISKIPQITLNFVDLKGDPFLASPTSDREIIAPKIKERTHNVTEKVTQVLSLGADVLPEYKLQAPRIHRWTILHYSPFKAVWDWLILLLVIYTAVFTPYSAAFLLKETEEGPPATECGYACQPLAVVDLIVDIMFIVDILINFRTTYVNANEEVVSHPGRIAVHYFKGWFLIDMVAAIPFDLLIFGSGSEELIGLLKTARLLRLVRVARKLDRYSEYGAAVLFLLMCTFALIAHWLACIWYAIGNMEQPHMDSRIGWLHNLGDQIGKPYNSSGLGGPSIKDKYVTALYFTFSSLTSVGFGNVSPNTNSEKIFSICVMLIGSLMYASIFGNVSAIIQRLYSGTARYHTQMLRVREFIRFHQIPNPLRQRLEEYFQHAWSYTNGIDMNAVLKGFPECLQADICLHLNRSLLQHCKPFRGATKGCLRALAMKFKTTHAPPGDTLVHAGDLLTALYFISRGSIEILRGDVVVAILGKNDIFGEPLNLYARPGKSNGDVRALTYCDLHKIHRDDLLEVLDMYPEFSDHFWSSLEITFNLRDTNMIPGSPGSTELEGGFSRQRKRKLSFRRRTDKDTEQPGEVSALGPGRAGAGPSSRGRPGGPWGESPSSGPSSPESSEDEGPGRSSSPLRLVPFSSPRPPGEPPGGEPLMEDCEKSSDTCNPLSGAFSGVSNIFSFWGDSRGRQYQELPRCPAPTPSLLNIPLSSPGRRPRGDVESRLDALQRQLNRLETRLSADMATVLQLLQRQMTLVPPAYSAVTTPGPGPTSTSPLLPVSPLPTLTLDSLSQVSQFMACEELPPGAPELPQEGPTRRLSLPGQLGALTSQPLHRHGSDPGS
row,SMILES,"hERG current change (%, negative = inhibition) at 10uM"
1,COc1cccc(NC(=O)N2CCCC(C(=O)NC3CCCCC3C)C2)c1 (stereo not shown),-2.78%
2,O=C(Nc1ccc(CN2CCOCC2)cc1)c1ccc2ccccc2c1,-47.1%
3,Cc1ccc(S(=O)(=O)N2CCC(C(=O)OC(C)C(=O)NC3CCCCC3C)CC2)cc1C (stereo not shown),-25.4%
4,Cc1ccc(N2C(=O)c3ccc(N)cc3C2=O)cc1C,0.256%
5,COC(=O)C(C(C)C)N1CCc2c(C)nc3c(C#N)cnn3c21 (stereo not shown),13.9%
6,CCOC(=O)N1CCN(C(=S)NC(=O)C23CC4CC(CC(C4)C2)C3)CC1,4.1%
7,Cc1cnc(C(=O)NCCc2ccc(C(F)(F)F)cc2)cn1,8.37%
8,COc1ccc(-c2cc(C)no2)cc1S(=O)(=O)N(C)c1ccc(C)c(C)c1,-1.83%
9,C=CCn1c(SCCN2CCCCC2)nc2c1c(=O)[nH]c(=O)n2C,-47.3%
10,CN(C)c1ccc(CN2CCC(C(N)=O)CC2)cc1.O=C(O)C(=O)O,39.8%
11,O=S1(=O)CCC(SCc2nc3sccn3c2Br)C1 (stereo not shown),-3.7%
12,Cc1ccc(-c2nnc(SCC(=O)N3CCCC3)o2)cc1,-5.18%
13,CCS(=O)(=O)n1nc(C(=O)N2CCOCC2)nc1N,6.35%
14,Cc1cc(C)cc(CC(Cc2nc3ccccc3[nH]2)c2nc3ccccc3[nH]2)c1 (stereo not shown),7.23%
15,O=c1/c(=C/c2cccc3ccccc23)sc2ncnn12,-8.89%
16,S=C(Nc1cccc(Cl)c1)Nc1ccccc1Oc1ccccc1,15.7%
17,CCC(C)(C(=O)Nc1ccc2c(c1)OCCO2)N(C(C)=O)c1ccc(C(N)=O)cc1 (stereo not shown),-4.82%
18,O=C1NC(Nc2ccccn2)(C(F)(F)F)C(=O)N1c1ccc(F)cc1 (stereo not shown),-0.785%
19,Cc1c(NC(=O)C(C)Oc2cccc(Cl)c2)c(=O)n(-c2ccccc2)n1C (stereo not shown),-2.21%
20,CC(=O)N=c1sccn1CC(=O)c1ccc([N+](=O)[O-])cc1,-13.9%
21,COc1cc(/C=N/NC(=O)c2ccc3nc[nH]c3c2)cc(OC)c1OC,4.81%
22,CCOC(=O)c1cnc2c(-c3ccccc3)c(-c3ccccc3)nn2c1C,10.2%

row,SMILES,"hERG current change (%, negative = inhibition) at 10uM"
1,CC(=O)Nc1cccc(NC(=O)c2cc(C)on2)c1,7.35%
2,COc1cccc(C(=O)NNC(=O)Cc2csc(N)n2)c1,-15.7%
3,CC(C)CCN(C(=O)c1ccc(N2CCCC2=O)cc1)c1c(N)n(Cc2ccccc2)c(=O)[nH]c1=O,12.2%
4,CSc1ccccc1NC(=O)c1cnc2scc(C)n2c1=O,7.7%
5,CC1Cc2ccccc2N1CC(=O)Nc1ccc2c(c1)OCO2 (stereo not shown),8.8%
6,COc1ccc(C(=O)N[C@H](C(=O)NCc2ccccc2)C(C)C)cc1,1.34%
7,COc1ccc(/C=N/NC(=O)c2c(C)nnn2-c2nonc2N)cc1OC,21.9%
8,O=C1CC(c2ccccc2)N1c1ccccc1 (stereo not shown),-3.61%
9,CC(C)(C)c1nnc(NC(=O)C2CCN(C(=O)c3ccco3)CC2)s1,9.75%
10,CCOc1cccc(NC(=O)CC#N)c1,8.73%
11,O=C1C=C(c2cccc(Cl)c2)C[C@@H](c2ccc(Cl)cc2)C1,24.4%
12,Cc1c(C)c(C)c(CO/N=C/c2cccs2)c(C)c1C,-6.05%
13,COc1ccc(C)cc1NC(=O)CCNS(=O)(=O)c1ccc2c(c1)CCC(=O)N2,-5.18%
14,COc1ccc2ncc(S(=O)(=O)c3ccccc3)c(N3CCC4(CC3)OCCO4)c2c1,-63.3%
15,CCC1=NN(C(=O)CCc2ccc3c(c2)OCO3)C(O)(C(F)(F)F)C1 (stereo not shown),0.796%
16,Cc1cccc(-[n+]2c(C)cc(C)c3c(=O)[nH]c(=O)[nH]c32)c1.[I-],4.06%
17,O=c1c2ccccc2nc(SCc2ccc([N+](=O)[O-])cc2)n1-c1ccc(Cl)cc1,2.79%
18,CC(=O)c1c(C)n(CC(=O)NCc2ccco2)c2ccccc12,-9.29%
19,Cc1nc2cc(NC(=O)Nc3ccccc3Cl)ccc2n1C,-10%
20,CCc1nnc(NC(=O)C2CC(=O)N(c3ccc(C)cc3)C2)s1 (stereo not shown),-15.5%
21,O=C(O)c1csc(-n2nc(-c3ccccc3)cc2C(F)(F)F)n1,15.5%
22,Cc1ccc2nc(SCC(=O)Nc3ccc(F)c([N+](=O)[O-])c3)[nH]c2c1,-2.06%

row,SMILES,"hERG current change (%, negative = inhibition) at 10uM"
1,COc1cc(CCC(=O)OCc2nnc(-c3ccccc3)o2)cc(OC)c1OC,-25.2%
2,COc1ccc(NC(=O)C2CCCN(C(=O)Nc3ccc(F)cc3)C2)cc1OC (stereo not shown),0.0756%
3,Cc1ccc2nccc(C(=O)N3CCCC(Nc4ccc(F)cc4)C3)c2c1 (stereo not shown),-18.4%
4,COc1cc2c(cc1OC)CN(Cc1cc(=O)oc3cc(C)c(Cl)cc13)CC2,-14.3%
5,Cc1cc(C)nc(-n2nc(C)cc2NC(=O)CNC2CCCCC2)n1,-52.4%
6,CCCN(CC1CCCO1)C(=O)c1cc(COc2cccc(OC)c2)on1 (stereo not shown),-4.79%
7,Cc1nc(NC(=O)CSc2nnc(N)s2)c(Cl)cc1Cl,25.3%
8,CCCn1cc(SCC(=O)Nc2cc(C)on2)c2ccccc21,-6.19%
9,Cn1c(=O)c2[nH]c(-c3cccnc3)nc2n(C)c1=O,2.19%
10,CN1/C(=C/C2CC(=O)N(c3cccc4ccccc34)C2=O)C(C)(C)c2ccccc21 (stereo not shown),0.919%
11,COc1cc(C(=O)OCC(=O)Nc2c(F)c(F)c(F)c(F)c2F)cc(OC)c1OC,0.103%
12,Cc1ccc(C(=O)O)cc1S(=O)(=O)N1CCOCC1,12.3%
13,O=C(CN(c1cccc(Cl)c1)S(=O)(=O)c1ccc(Cl)cc1)N1CCc2ccccc2C1,-21.5%
14,CC(=O)Nc1ccc(NC(=O)CN(c2ccc([N+](=O)[O-])cc2)S(=O)(=O)c2ccccc2)cc1,-22.3%
15,O=C(NCc1ccc(Cl)c(Cl)c1)c1ccc2c(c1)OCO2,-10.7%
16,Cc1noc(NS(=O)(=O)c2ccc(NC(=O)C(F)(F)C(F)(F)C(F)(F)F)cc2)c1C,20.3%
17,COc1ccc(CN2CCN(c3ccccc3F)CC2)c(OC)c1,-75.1%
18,NC(=O)c1c(NC(=O)CCCn2cnc([N+](=O)[O-])n2)sc2c1CCCC2,-12%
19,O=C(CN1CCOc2ccccc21)N1CCN(c2cccc(Cl)c2)CC1,-21.9%
20,O=C(Nc1cn(-c2ccccc2)nc1-c1ccc(Cl)cc1)c1ccccc1,13.8%
21,COc1ccc(S(=O)(=O)N(C)C)cc1NC(=O)COC(=O)Cn1cnc2ccccc2c1=O,-8.25%
22,Cc1ccc(N2C(=O)C3C4C=CC(CNC(=S)Nc5cccc(Cl)c5)(O4)C3C2=O)cc1 (stereo not shown),-15.7%

row,SMILES,"hERG current change (%, negative = inhibition) at 10uM"
1,CCC(O)(CCN1CCCCC1)c1ccccc1 (stereo not shown),-5.84%
2,CCC(Cc1ccccc1)NC(=O)CCn1cccc1 (stereo not shown),5.74%
3,O=C(CC1C(=O)NCCN1CC1CCCCC1)NC1(c2ccccc2)CC1 (stereo not shown),13.8%
4,O=C(COC(=O)c1ccccc1O)Nc1ccc(N2CCOCC2)cc1,4.73%
5,O=C(Nc1ccc(N2CCOCC2)cc1)c1ccc(Cl)c(S(=O)(=O)N2CCCC2)c1,11.2%
6,Cc1cccc(/C(N)=N/OC(=O)CCCc2ccccc2)c1,-2.21%
7,O=C(CN1C(=O)C(=O)N(Cc2ccco2)C1=O)NC1CCCCC1,23.2%
8,O=C(NCc1cccnc1)c1ccc(Cl)c(S(=O)(=O)Nc2ccccc2C(=O)NCc2cccnc2)c1,14.2%
9,COC(=O)c1ccccc1NC(=O)CSc1nnc(-c2cccnc2)n1N,-6.71%
10,O=C1c2ccccc2CSc2c(O)cccc21,-15.1%
11,CS(=O)(=O)N(CC(=O)N1CCCCCC1)c1cccc(Br)c1,-16.9%
12,Cc1c(C(=O)NC(C)CN2CCCCC2)oc2ccccc12 (stereo not shown),-27.6%
13,O=C(COc1cccc2ccccc12)NCc1cccnc1,1.02%
14,CCC1CCCCN1S(=O)(=O)c1ccc2c(c1)CCN2C(C)=O (stereo not shown),0.962%
15,CCn1c(CNc2nc(-c3ccccc3)cs2)nnc1SCC(=O)NCc1ccccc1,-3.04%
16,CCOC(=O)c1c(C)c(C(=O)N2CCc3ccccc3C2)c(C)n1CC,-11.9%
17,C=CCn1c(SCC(=O)NC2CCCCC2)nnc1-c1ccc(OC)cc1,-12%
18,COc1ccc2[nH]c(C(=O)Nc3ccc(F)cc3Br)cc2c1,11.7%
19,COCC(=O)c1[nH]c2ccccc2c1C,8.33%
20,O=C(NCCN1C(=O)C2C3C=CC(C3)C2C1=O)N1CCCCC1 (stereo not shown),8%
21,Cc1ccc(N(C(=O)c2ccco2)C(C(=O)NC2CCCC2)c2cccnc2)cc1 (stereo not shown),-9.88%
22,CCOC(=O)CCc1cnccc1-c1cccc(OC)c1O,-1.53%
